Test results from the supplement of paper PMC12217912.
This is one part of the list. Sequences were assembled here from the parent chain. Inactive controls read about 0.05.

B1: TEV protease; numbered along this chain (parent)
chain: MGESLFKGPRDYNPISSSICHLTNESDGHTTSLYGIGFGPFIITNKHLFRRNNGTLVVQSLHGVFKVKDTTTLQQHLVDGRDMIIIRMPKDFPPFPQKLKFREPQREERICLVTTNFQTKSMSSMVSDTSCTFPSGDGIFWKHWIQTKDGQCGSPLVSTRDGFIVGIHSASNFTNTNNYFTSVPKNFMELLTNQEAQQWVSGWRLNADSVLWGGHKVFMVKPEEPFQPVKEATQL

Variants of: B1
Assay: raw area under fraction-flipped curve 0-4 h after induction (AUC4h, not background-subtracted), DNA-recorder readout of cleavage of the substrate (dimensionless); higher = more cleavage of the substrate by the protease variant
Details: temperature: 34 °C; time window: 0-4 h after rhamnose induction
Experimental: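 In vivo DNA recorder in E. coli TOP10(DE3) ΔrhaA at 34 °C. Each TEVp single-site mutant (parent TEVp 0) is paired with a single-site variant of the 7-mer TEVs (canonical ENLYFQ|S). The substrate sits between flexible linkers in a Bxb1-sfGFP-TEVs-SsrA fusion, so cleavage stabilises Bxb1 and speeds flipping of a recombination array, read by NGS. The value is the raw area under the fraction-flipped curve over 0-4 h after rhamnose induction (AUC4h), with ≥20 reads per time point. It is not background-subtracted; inactive controls average about 0.047.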
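Also: Bxb1 expression induced with 0.2% (w/v) L-rhamnose at OD600 near 0.5, cultures sampled hourly, flipped fraction per protease–substrate barcode pair counted by paired-end Illumina sequencing.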

Variant | area with substrate ENAYFQS | area with substrate ENCYFQS | area with substrate ENDYFQS | area with substrate ENHYFQS | area with substrate ENMYFQS | area with substrate ENPYFQS | area with substrate ENQYFQS | area with substrate ENRYFQS | area with substrate ENSYFQS | area with substrate ENVYFQS | area with substrate ENEYFQS | area with substrate ENFYFQS | area with substrate ENIYFQS | area with substrate ENKYFQS | area with substrate ENNYFQS | area with substrate ENTYFQS | area with substrate ENYYFQS | area with substrate ENGYFQS | area with substrate ENWYFQS
H47D | 0.0663 | 0.0604 | 0.0663 | 0.0568 | 0.0469 | 0.0689 | 0.052 | 0.0556 | 0.0525 | 0.0669 | – | – | – | – | – | – | – | – | –
H47K | 0.0613 | 0.0555 | 0.0673 | 0.0396 | 0.0519 | 0.0706 | 0.059 | 0.0401 | 0.0503 | 0.0451 | 0.0567 | 0.0596 | 0.0649 | 0.058 | 0.0606 | – | – | – | –
H47L | 0.0401 | 0.0492 | 0.0564 | 0.0435 | 0.0522 | – | 0.0615 | – | 0.0821 | 0.0704 | 0.0671 | 0.0624 | 0.0539 | – | 0.0747 | 0.0575 | 0.0595 | – | –
H47Y | 0.0641 | 0.057 | 0.0588 | 0.06 | 0.0929 | 0.053 | 0.0514 | – | 0.0711 | 0.0695 | 0.0504 | 0.0634 | – | 0.0393 | 0.0688 | 0.0581 | 0.0581 | 0.061 | 0.0085
G37P | 0.0491 | 0.0484 | 0.0392 | – | – | 0.0444 | 0.044 | 0.0402 | 0.06 | 0.044 | 0.0489 | – | 0.0516 | – | 0.0418 | 0.0529 | 0.0853 | – | –
T31F | 0.069 | 0.0673 | 0.0702 | 0.0619 | – | 0.0572 | 0.0593 | – | 0.0547 | 0.0644 | 0.0654 | 0.0466 | 0.0987 | 0.0939 | 0.0565 | 0.0517 | 0.0615 | 0.0603 | –
T31P | 0.0573 | 0.0645 | – | – | 0.0511 | – | – | 0.0618 | 0.0564 | 0.0524 | 0.0498 | 0.0622 | 0.0607 | 0.0579 | – | 0.0587 | 0.0626 | – | –
T31W | 0.0664 | 0.0617 | 0.0605 | 0.0441 | 0.0898 | – | 0.0566 | 0.0622 | 0.0305 | – | – | 0.0475 | 0.0679 | – | 0.0559 | 0.0579 | 0.0643 | 0.0262 | 0.0599
K46P | 0.0467 | 0.0647 | 0.0562 | 0.0589 | 0.0552 | – | 0.0526 | – | 0.0465 | 0.0652 | 0.0508 | 0.0828 | 0.0677 | 0.0548 | 0.0587 | – | 0.0583 | 0.0518 | 0.0054
H29E | 0.0705 | 0.0666 | 0.0569 | 0.0531 | 0.0794 | – | 0.049 | – | 0.0536 | 0.0817 | 0.0564 | – | 0.103 | – | 0.0637 | 0.0671 | 0.0626 | 0.0566 | –
H29R | 0.0366 | 0.043 | 0.067 | 0.0596 | 0.0485 | – | 0.0497 | – | 0.0612 | 0.073 | 0.0465 | – | – | – | – | 0.0543 | – | 0.0707 | 0.0466
H29D | 0.0565 | 0.059 | 0.07 | 0.0574 | 0.11 | 0.0382 | 0.0611 | 0.0338 | 0.0776 | 0.0729 | 0.0546 | – | 0.116 | 0.0813 | 0.0603 | 0.0569 | 0.0359 | 0.0883 | –
H29A | 0.0496 | 0.0619 | 0.0675 | 0.0631 | – | 0.0557 | 0.0642 | 0.0501 | 0.0574 | 0.0794 | 0.0596 | 0.059 | 0.118 | 0.0745 | 0.0769 | – | 0.0625 | 0.0568 | 0.0584
L56D | 0.0508 | 0.0411 | 0.0506 | 0.0486 | 0.0581 | 0.0335 | 0.0431 | 0.0398 | 0.0443 | 0.0524 | 0.0409 | 0.0322 | – | 0.0745 | 0.0449 | 0.0408 | 0.0261 | – | 0.0481
L56V | 0.0554 | – | 0.0608 | 0.0584 | 0.061 | 0.0499 | 0.0543 | 0.0594 | 0.0615 | 0.0574 | 0.0627 | – | – | – | – | – | 0.0545 | 0.0586 | –
H62D | 0.0651 | 0.06 | 0.0576 | 0.0625 | 0.064 | – | 0.0621 | 0.07 | – | 0.0749 | 0.0547 | 0.0644 | – | 0.0623 | 0.0485 | 0.0651 | – | 0.0604 | –
H62V | 0.0639 | 0.0632 | 0.0401 | – | 0.0803 | 0.054 | 0.0693 | – | 0.052 | 0.0656 | 0.0669 | 0.0538 | – | 0.0525 | – | – | – | – | –
H62F | 0.0632 | 0.0584 | 0.0539 | 0.057 | 0.0795 | – | 0.0472 | 0.0628 | 0.0601 | 0.0591 | 0.0627 | 0.0662 | – | – | 0.0429 | 0.0749 | 0.0642 | 0.0595 | 0.0547
G63Q | 0.0632 | 0.0709 | 0.065 | 0.0501 | 0.0787 | 0.0618 | 0.0559 | 0.042 | 0.049 | 0.0604 | 0.067 | 0.0429 | 0.106 | 0.0577 | 0.056 | 0.0577 | 0.0638 | 0.0493 | –
I42C | 0.0545 | 0.0628 | 0.0643 | 0.0569 | – | 0.0342 | 0.0635 | 0.0564 | 0.055 | 0.0561 | 0.0652 | 0.0608 | 0.0931 | 0.0598 | 0.0617 | 0.0577 | – | 0.0612 | –
I42Y | 0.0482 | 0.0419 | 0.0457 | 0.0495 | – | 0.0412 | 0.0445 | 0.0486 | 0.0493 | 0.0369 | 0.0567 | 0.0563 | 0.0238 | 0.0463 | 0.0464 | 0.0519 | 0.0363 | 0.0519 | 0.0419
N45I | 0.0541 | 0.0613 | 0.0609 | 0.0626 | 0.0649 | 0.0506 | 0.0508 | 0.0568 | 0.0622 | 0.0513 | 0.0673 | 0.0625 | – | 0.0509 | 0.0568 | 0.0634 | – | – | 0.0536
N45V | 0.0544 | 0.0585 | 0.0588 | 0.0479 | – | 0.0508 | 0.0591 | 0.055 | 0.0661 | 0.0669 | 0.0631 | 0.0552 | 0.0595 | – | 0.0585 | 0.0658 | 0.0409 | 0.0559 | 0.059
N45H | 0.0659 | 0.0616 | 0.0507 | – | 0.0618 | – | 0.0606 | 0.0485 | 0.062 | 0.0715 | 0.0613 | 0.0921 | 0.0646 | – | 0.0691 | 0.0535 | – | 0.0771 | 0.0114
